Tested on: selected bacterial clinical isolates
Experiment: Growth inhibition of clinical isolates, broth dilution test (overall statement)
Assay type: cell-based

SMILES: Cn1nnnc1SCC1=C(C(=O)O)N2C(=O)C(NC(=O)Cn3cnc([N+](=O)[O-])c3)C2SC1 (stereo not shown) [P-75123, 7-1-(1H-4-nitroimidazolyl)acetyl!amino-3-5-(1H-1-methyltetrazolyl)thio!methyl-3-cephem-4-carboxylic acid]
- inhibiting the growth of selected bacterial clinical isolates: effective in inhibiting the growth

From patent US4073903A, “3-Desacetoxymethyl-3- 5'(1-methyltetrazolyl)thio!methyl-7- 1-(4-nitr oimidazolyl)acetyl!aminocephalosporanic acid” (Pierrel S.p.A., priority 1975, dated 1978)
